Data taken from PubChem BioAssay AID1508624 (National Center for Advancing Translational Sciences (NCATS), 2021).
Screen size: about 48,000 compounds; about 120 (0.25%) were called active. Another 4% or so got no clear call; they are omitted. Calls come from the whole dose curve; as a rule, active = well fitted activation curve with a large enough effect; inconclusive = small, poorly fitted or top-dose-only effect, or another doubt; inactive = no such curve, though single readings can be large or run the other way. Some of the results follow.

Experiment: Primary qHTS for Identification of Small Molecule Activators of Huntingtin-Antisense Promoter Activity; note: nearly all actives have a fitted effect of over 55% in size
Settings: HEK293 HTT-AS promoter firefly luciferase reporter, 24 h; series mostly up to 57.5 µM; activity change, positive = activation: at the top concentration
Outline: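 Quantitative HTS used concentration series of up to 57.5 uM final on HEK293 luciferase reporter cells, 24 h at 37 degrees C. Readout was Dual-Glo firefly luminescence.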

Activity change, positive = activation, inactive:
O=C(NCCc1ccc(Cl)cc1)C(=O)NCC(c1ccco1)S(=O)(=O)c1ccccc1 (stereo not given) -18.3%
Cc1ccc(NC(=O)C(=O)NCC(c2cccnc2)N2CCN(C)CC2)cc1 (stereo not given) -2.73%
Cc1c(C(=O)NCc2ccccc2)oc2ccc(S(=O)(=O)N3CCC(C)CC3)cc12 -17.8%
COc1ccc(C)cc1NC(=O)c1ccc2nc(Cc3ccccc3)oc2c1 -18.7%
CCn1c2c(c(=O)n3ncc(C(=O)Nc4ccc(C(=O)OC)cc4)c13)CN(Cc1ccc(OC)cc1)CC2 8.71%
COc1ccc(CCNC(=O)c2c(O)nc3c(C)cccn3c2=O)cc1OC 18.8%
COc1ccc(NC(=O)c2c(N)c(C(=O)c3ccc(OC)cc3)n3ccccc23)cc1 -7.98%
COc1ccc(N2CCN(C(=O)CSc3nc4ccccc4nc3Cc3ccc(Cl)cc3)CC2)cc1 -30.1%
Cc1c(C(=O)NCCc2ccc(Cl)cc2)cccc1-n1cnc2cccnc21 -13.1%
CCn1c2ccccc2c2cc(CN3CCN(Cc4ccc(OC)c(OC)c4)CC3)ccc21 -31.7%
CCOc1ccc(CC(=O)NCCS(=O)(=O)N2CCN(c3ccc(OC)cc3)CC2)cc1 4.33%
Cc1cc(C)cc(NC(=O)c2sc3nc[nH]c(=O)c3c2C)c1 9.43%
CCOC(=O)Cn1c(=O)n(CC2CCCO2)c2nc(-c3ccccc3Cl)nc(C(N)=O)c21 (stereo not given) -6.02%
CCOC(=O)c1ccc(CN(Cc2ccc(OC)cc2)S(=O)(=O)c2cccc(C(F)(F)F)c2)cc1 -15.2%
O=c1c(N2CCc3ccccc3C2)csc2ccc(F)cc12 21.5%
CCOc1ccc(N(CC)C(=O)c2noc3c2COc2ccc(C)cc2-3)cc1 -26.3%
COc1ccccc1C(=O)Nc1c(C(=O)c2ccccc2)oc2ccccc12 -7.28%
CC1=C(C(=O)Nc2ccccc2C)C(c2cccs2)n2nc(SCc3cc(C)ccc3C)nc2N1 (stereo not given) 21.8%
Cc1ccc(CNC(=O)c2c(-c3ccc(Br)cc3)noc2C)o1 -28.2%
CCOc1ccccc1NC(=O)C1=C(C)Nc2ncnn2C1c1sccc1C (stereo not given) -21.6%
O=C(CCCn1c(=O)c2cccn2c2cccnc21)Nc1ccccc1C(F)(F)F -7.02%
CCOC(=O)c1ccc(Nc2nn3c(=O)c4ccccc4nc3s2)cc1 -2.72%
COc1cc(OC)c(NC(=O)N2CCC(CN3CCCC3)CC2)cc1Cl -10.4%
COc1ccc(OC)c(NC(=O)c2ccc3c(Cl)c4c(nc3c2)CCCC4)c1 -8.28%
CCCCN(C)C(=O)Cn1cnc2sc(C)c(S(=O)(=O)N3CCC(C)CC3)c2c1=O 5.43%
Cc1ccc(CNc2ccc3cc(S(=O)(=O)N4CCCCC4)ccc3n2)cc1 -39.1%
COc1ccccc1Nc1ncnc2scc(-c3ccc(F)cc3)c12 -31.2%
Cc1ccc(CNC(=O)c2ccc(CS(=O)(=O)Cc3ccc(C)cc3)o2)cc1 -31.4%
Cc1nn(-c2ccccc2)c2c1N(CC(=O)N1CCN(c3ccccc3F)CC1)C(=O)CS2 -27%
CCN(CC)c1ccc(C2Nc3ccccc3-c3cc(C)nn32)cc1 (stereo not given) -7.21%
CCCCN(CCCNC(=O)c1cc(Nc2ccccc2OC)nc2ccccc12)c1ccccc1 -28.7%
COc1ccc(CNC(=O)c2cccn2-c2nnc(N3CCCC3)s2)c(OC)c1 -7.25%
COc1ccc(C2(CNC(=O)C(=O)Nc3ccccc3C)CCCC2)cc1OC -16.7%
Cc1ccc(N(Cc2cccs2)C(=O)c2ccco2)cc1 -29.7%
Nc1nn(-c2ccccc2)nc1C(=O)OCc1c(F)cccc1Cl 28.3%
COc1cc(Nc2nc(SCC(=O)c3ccc(Cl)c(Cl)c3)nc3ccccc23)cc(OC)c1 -35.7%
O=C(Nc1ccc2nc3n(c(=O)c2c1)CCCCC3)c1cccc(C(F)(F)F)c1 -56.8%
O=C(CCC1N=C2c3ccccc3N=C(SCC(=O)Nc3ccc(F)cc3)N2C1=O)NCc1ccco1 (stereo not given) -5.77%
CC(C)N(C(=O)Cn1cc(S(=O)(=O)Cc2ccc(Cl)cc2)c2ccccc21)C(C)C -17.5%
COc1ccc(-n2c(SCC(=O)NCc3ccccc3)nc3c([nH]c4ccccc43)c2=O)cc1 -31.6%
COc1ccc(Nc2nn(-c3ccc(OC(F)(F)F)cc3)nc2C(C)=O)cc1 5.89%
Cc1cc(C(=O)NCc2ccccc2)c2c(C)nn(-c3cccc(F)c3)c2n1 -28.8%
COc1ccc(NC(=O)CC2Nc3ccccc3NC2=O)cc1 (stereo not given) 11.7%
O=C(Cn1c(=O)c2cccn2c2ccccc21)NCc1ccccc1F -2.76%
COC(=O)c1ccc(NC(=O)Cn2cnc3c2c(=O)n(C)c(=O)n3C)cc1 -11.9%
Cc1cccc(N(CC(=O)NCCSCc2ccccc2)S(=O)(=O)c2ccccc2)c1C -31.5%
CCc1cccc(C)c1NC(=O)C1CCCN1S(=O)(=O)c1cccc2nsnc12 (stereo not given) -7.83%
Cc1nc(N2CCCC2)c2c(C(=O)N3CCN(c4cc(Cl)ccc4C)CC3)c(C)oc2n1 -44.7%
Cc1ccc(C(=O)c2cn(Cc3ccccc3)c3nc(C)ccc3c2=O)cc1 -10.1%
CCn1c(=O)c(=O)n(CC)c2cc(S(=O)(=O)Nc3ccc(C)cc3)ccc21 -6.21%
Cc1ccc(NC(=O)C2CCCN(S(=O)(=O)c3c(C)noc3C)C2)cc1 (stereo not given) -21.4%
Nc1c(C(=O)Nc2ccccc2)sc2nc3c(cc12)CN(Cc1ccccc1)CC3 -8.55%
Cc1cccc(-n2c(=O)c3c4c(sc3n3c(C)nnc23)CCCC4)c1 0%
COc1ccc(NC(=O)c2oc3ccccc3c2NC(=O)C2CCCCC2)c(OC)c1 -1.42%
CCOc1cc(C#N)c(-n2nnc3c(sc4nc(C)cc(C)c43)c2=O)cc1OCC -10%
CCCCN(C)C(=O)c1ccc2c(c1)N(Cc1cccc(F)c1)C(=O)c1ccccc1S2 -27.1%
CCOC(=O)c1scc(-c2ccc(C)cc2)c1S(=O)(=O)Nc1cc(OC)ccc1OC -30.1%
NS(=O)(=O)c1ccc(C(=O)O)cc1 1.71%
Cc1cc(C)c(/C=C/c2onc(C)c2S(=O)(=O)N2CCC(C(=O)NCCc3ccccc3)CC2)c(C)c1 -4.62%
COc1c(C)cc(Br)cc1C(=O)Nc1ccc(-c2nc3ncccc3o2)cc1 -32.9%
CCOc1ccc(NC(=O)Cn2c(=O)n(-c3cccc(Cl)c3)c(=O)c3c2c2cc(C)ccc2n3C)cc1 -3.41%
COc1cc(NC(=O)c2ccc3oc(=O)c(S(=O)(=O)c4ccccc4)cc3c2)cc(OC)c1 -81.5%
CCOc1cccc(C2c3[nH]c4ccccc4c3CCN2C(=O)CSc2ccccc2)c1 (stereo not given) -26.2%
Cc1cccc(C(=O)N2CCc3cc(CNC(=O)COc4ccc(Cl)cc4)ccc32)c1 4.83%
CC(C)c1ccc(NC(=O)C2CCN(S(=O)(=O)c3cccc4nonc34)CC2)cc1 -14.1%
Cc1ccccc1Nc1c(-c2ccc(Cl)cc2)nc2c(C)cccn12 10.9%
COc1ccc(NC(=O)Cn2c(=O)n(CCc3ccccc3)c(=O)c3c4c(sc32)CCCC4)cc1 -4.68%
Cc1ccc(N2C(=O)CSC23C(=O)N(Cc2ccccc2F)c2ccccc23)cc1F (stereo not given) -33.2%
CCOC(=O)c1c(NC(=O)c2nc(SCC)ncc2Cl)sc2c1CCCC2 26.2%
COc1cc2c(=O)c(C(=O)c3ccc(C)c(C)c3)cn(Cc3ccc(F)cc3)c2cc1OC -3.71%
CCOc1ccccc1NC(=O)c1ccc2c(c1)CCN2S(=O)(=O)c1ccc(C)cc1 7.51%
Cc1ccccc1NC(=O)CSc1cn(CC(=O)N2CCCCCC2)c2ccccc12 -29.3%
Cc1nc(SCC(=O)Nc2ccccc2C)cc(-c2ccccc2)n1 -8.45%
CCSc1nnc2c(n1)OC(c1cc(OC)c(OC)c(OC)c1)Nc1ccccc1-2 (stereo not given) -0.87% [at 11.5 µM, percent change from vehicle, -100% = no light]
CCOc1cc(CNC(=O)Cn2c(=O)c3cccn3c3ccc(F)cc32)cc(OCC)c1OCC -14.4%
CCOC(=O)c1c(C)[nH]c(C)c1S(=O)(=O)NCC(=O)Nc1ccc(C)c(N(C)C)c1 12.4%
COc1cc(OC)c(NC(=O)c2cc3c(=O)oc4ccc(C)cc4c3s2)cc1Cl -9.31%
Cc1cc(NC(=O)c2cc(-c3ccc(Cl)cc3)on2)n(-c2ccccc2)n1 -7.36%
COc1ccc(CNC(=O)Cc2ccc(NC(=O)N3CCSc4ncccc43)cc2)cc1OC -18.4%
O=C(NCCc1ccccc1)C(=O)NCC(c1ccco1)S(=O)(=O)c1cccs1 (stereo not given) -2.34%
COc1ccc(-c2nc(CSc3nncn4c3cc3oc(C)cc34)c(C)o2)cc1 1.41%
Cc1ccccc1NC(=O)c1ccc(F)c(S(=O)(=O)N2CCN(c3ccccc3F)CC2)c1 -41.9%
COc1ccc(OC)c(CCNC(=O)c2ccc3c(c2)c(C)c(C)n3Cc2ccccc2)c1 -28.8%
COc1cc(NC(=O)CN2C(=O)c3ccccc3Sc3ccc(C(=O)N4CCCC4)cc32)cc(OC)c1 -22%
CCOC(=O)c1ccccc1NC(=O)CN1CCCN(Cc2cc(C)ccc2C)S1(=O)=O -35%
CCOC(=O)c1[nH]c2ccccc2c1NC(=O)c1ccccc1F -22.4%
Cc1oc2ncnc(N3CCCCC3)c2c1C(=O)NCC1CCN(Cc2cccc(F)c2)CC1 4.47%
CCN1CCN(CCCNC(=O)CS(=O)(=O)Cc2nc(-c3cccc(OC)c3)oc2C)CC1 -9.96%
CCC(CC)c1nn2c(=O)cc(COc3ccc(NC(=O)c4ccccc4C)cc3)nc2s1 -26.8%
COc1cc(NS(=O)(=O)c2ccc(NC(=O)c3cccc(F)c3)cc2)nc(OC)n1 -17.8%
CCC1CN(S(=O)(=O)c2cc(-c3cc(C)no3)ccc2C)c2cc(Cl)ccc2O1 (stereo not given) -10.5%
COc1cc(NC(=O)CC2C(=O)OCCN2Cc2ccccc2)cc(OC)c1 (stereo not given) -25.9%
CCCc1nn2c(=O)cc(COC(=O)c3cccc(NC(=O)c4cccs4)c3)nc2s1 -7.04%
COc1ccc(C(=O)NCC(c2cccnc2)N2CCN(c3ccccc3)CC2)cc1 (stereo not given) -23.7%
CCc1cccc(C)c1NC(=O)CCS(=O)(=O)c1cc(Br)cc2c1N(C(=O)C1CC1)CC2 -19.1%
